Laboratory results reported in article PMC4336329 (PLoS ONE, 2015).
Among all 310,000 compounds or so, about 14,000 (4.5%) showed an effect of 50% or more. Effects have a minus sign here. This is one part of the list.

biological target: human ether-à-go-go-related gene (hERG) potassium channel (human, UniProt Q12809); test: primary screen, population patch clamp on CHO cells stably expressing hERG
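Further: peak tail current of the secondary pulse compared with the same well before compound.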

human ether-à-go-go-related gene (hERG) potassium channel, sequence (Q12809 whole entry, looked up): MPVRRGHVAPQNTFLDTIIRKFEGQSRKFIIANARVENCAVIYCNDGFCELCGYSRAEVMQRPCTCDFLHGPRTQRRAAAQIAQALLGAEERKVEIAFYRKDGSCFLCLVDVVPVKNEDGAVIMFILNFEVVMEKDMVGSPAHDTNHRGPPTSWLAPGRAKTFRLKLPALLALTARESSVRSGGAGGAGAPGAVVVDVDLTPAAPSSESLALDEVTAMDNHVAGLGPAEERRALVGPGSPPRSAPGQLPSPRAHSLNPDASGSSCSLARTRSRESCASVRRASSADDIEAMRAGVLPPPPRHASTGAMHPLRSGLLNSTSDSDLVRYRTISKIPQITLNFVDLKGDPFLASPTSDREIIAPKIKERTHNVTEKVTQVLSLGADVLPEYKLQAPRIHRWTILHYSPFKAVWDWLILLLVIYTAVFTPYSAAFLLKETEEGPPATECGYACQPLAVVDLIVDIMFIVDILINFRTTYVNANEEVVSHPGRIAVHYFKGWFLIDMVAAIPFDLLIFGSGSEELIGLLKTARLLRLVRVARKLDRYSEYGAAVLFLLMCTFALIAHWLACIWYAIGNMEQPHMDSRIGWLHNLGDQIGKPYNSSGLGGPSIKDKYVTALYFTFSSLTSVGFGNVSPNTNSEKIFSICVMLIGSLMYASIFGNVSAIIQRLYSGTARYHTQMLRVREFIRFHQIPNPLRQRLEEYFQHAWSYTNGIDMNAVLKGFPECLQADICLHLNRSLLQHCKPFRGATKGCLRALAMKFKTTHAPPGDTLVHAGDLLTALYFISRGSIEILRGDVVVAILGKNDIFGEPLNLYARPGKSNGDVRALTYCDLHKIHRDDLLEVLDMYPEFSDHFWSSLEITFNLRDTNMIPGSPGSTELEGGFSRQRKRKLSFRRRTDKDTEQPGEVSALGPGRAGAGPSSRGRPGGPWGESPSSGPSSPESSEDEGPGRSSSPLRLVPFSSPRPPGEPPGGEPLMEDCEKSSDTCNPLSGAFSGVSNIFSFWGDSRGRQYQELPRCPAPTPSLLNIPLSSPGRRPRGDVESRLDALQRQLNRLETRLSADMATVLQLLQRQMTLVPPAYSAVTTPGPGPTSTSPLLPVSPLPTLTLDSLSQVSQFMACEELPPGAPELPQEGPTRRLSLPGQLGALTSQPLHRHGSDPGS

| Compound | hERG current change (%, negative = inhibition) at 10uM [%] |
| --- | --- |
| O=C1c2ccccc2C(=O)N1CCc1ccccc1 | 4.5 |
| N#Cc1nc(Cc2cccc3ccccc23)oc1N1CCC(C(N)=O)CC1 | -12.8 |
| O=C(COc1ccc([N+](=O)[O-])cc1)Nc1ccc(C(=O)NCc2cccnc2)cc1 | -22.8 |
| CCCS(=O)(=O)N1CCC(C(=O)NCCCN(C)Cc2ccccc2)CC1 | 3.83 |
| COC(=O)C1=C(C)N(C2CCCC2)C(=O)C1(NC(C)=O)C(F)(F)F (stereo not drawn) | 0.779 |
| CCOc1ccccc1NC(=O)CSC1=C(C#N)C(c2ccco2)C(C(=O)Nc2nc3ccccc3s2)=C(C)N1 (stereo not drawn) | -3.6 |
| O=C1C=C(c2ccc3c(c2)OCO3)C[C@@H](c2ccc3c(c2)OCO3)C1 | 10.9 |
| COc1ccccc1C(=O)COC(=O)CSCC(=O)Nc1cc(C)on1 | 2.58 |
| CC1(C)CC(NC(=O)N2c3ccccc3Sc3ccccc32)CC(C)(C)N1 | -0.218 |
| COc1ccc(C2CC(c3cccs3)=NN2C(=O)c2ccco2)cc1OC (stereo not drawn) | -33.4 |
| CC(=O)N1CCN(c2ccc(C(N)=O)cc2[N+](=O)[O-])CC1 | 8.73 |
| CCOC(=O)c1cccc(C2=CC(=O)C[C@H](c3ccc(Cl)cc3)C2)c1 | 5.03 |
| CCOC(=O)c1ccc(CSc2nnc(N)s2)cc1 | -11.7 |
| COc1ccccc1/C=N/OCc1ccc(C#N)cc1 | -3.07 |
| Cc1cc(C)n2nc(SCc3nnc(-c4cccs4)o3)nc2n1 | 9.05 |
| CCC(C)Nc1nc2c(c(=O)n(C)c(=O)n2C)n1C (stereo not drawn) | 6.25 |
| O=C(CSc1nnc(CNc2ccc(F)cc2)n1Cc1ccccc1)N1CCOCC1 | -14.7 |
| Cc1cc(C)n(C/C=C/Cn2nc(C)cc2C)n1 | -16.6 |
| COc1ccc(Nc2nc(NC(C)(C)C)nc(N3CCOCC3)n2)c(OC)c1 | -25.3 |
| COc1cccc(NC(=O)NNC(=O)c2ccc3c(c2)NC(=O)C(C)(C)O3)c1 | 15.4 |
| Cc1ccc(NC(=O)CSc2nc3c(c(=O)[nH]2)CCC3)c(C)c1 | 21.3 |
| CCC1CCCCN1C(=O)CCc1nnc(Cc2c[nH]c3ccccc23)o1 (stereo not drawn) | -1.33 |

| Compound | hERG current change (%, negative = inhibition) at 10uM [%] |
| --- | --- |
| CC(NC(=O)CCCc1ccccc1)c1ccncc1 (stereo not drawn) | -9.71 |
| CCCn1c(SCC(=O)NCCc2ccccc2)nnc1-c1ccco1 | -44.1 |
| O=C(CCn1nc(-c2ccc(Cl)cc2)ccc1=O)N1CCN(c2ccc(F)cc2)CC1 | -52.9 |
| Cc1sc(NC(=O)c2ccco2)c(C(c2cccnc2)N2CCN(C)CC2)c1C (stereo not drawn) | -32.7 |
| CC(C)NC(=S)NC(=O)c1ccc(-c2ccccc2)cc1 | -23.9 |
| Nc1nncn1C(=O)c1cccs1 | 0.103 |
| CCOC(=O)c1cc2c(ccn2C)n1CC(=O)N1CCN(c2ccc(F)cc2)CC1 | 5.83 |
| COc1cc(OC)c(NC2c3ccccc3C(=O)N2c2cc(C)ccn2)cc1Cl (stereo not drawn) | 6.6 |
| CCOc1ccc(NC(=O)Cn2nnc(C(=O)NCc3ccco3)c2N)cc1 | 15.1 |
| O=[N+]([O-])c1ccc(NC2CCCC2)c2ccncc12 | 17.4 |
| Br.Cn1c(=N)n(CC(=O)c2ccc(F)cc2)c2ccccc21 | -23.2 |
| O=C(O)c1ccc2c(c1)-c1cc(C(=O)O)ccc1S2(=O)=O | 9.48 |
| COc1ccc(S(=O)(=O)n2cccc2)c(OC)c1 | 5.65 |
| CN(C)S(=O)(=O)c1ccc2c(c1)c(=O)c(C(=O)N1CCN(c3ccccn3)CC1)cn2C | 7.01 |
| O=C(CNC(=O)c1ccc(Br)o1)NNC(=O)c1ccc(Cl)cc1 | -27.1 |
| CC1(C)CC(=O)C=C(NCCN2CCN(C(=O)Nc3ccc(Cl)cc3)CC2)C1 | -10.1 |
| CCOC(=O)C1(C)NC(c2cccs2)C2C(=O)N(c3ccc(OC)cc3)C(=O)C21 (stereo not drawn) | 5.67 |
| CCOc1ccccc1N1CC(C(=O)N(C)Cc2cccnc2)CC1=O (stereo not drawn) | 15 |
| CC1CCCCN1Cc1c(O)ccc2c(=O)c(-c3nc4ccccc4s3)c(N)oc12 (stereo not drawn) | -60.6 |
| NS(=O)(=O)c1ccc(N=Nc2c(O)ccc3ccccc23)cc1 | -15.3 |
| O=C(N/N=C/c1c(O)n(Cc2ccccc2)c(=O)[nH]c1=O)c1ccncc1 | 12.9 |
| COc1ccc(/C=C/CN2CCCC(CCC(=O)NCc3ccc(F)c(F)c3)C2)cc1 (stereo not drawn) | -72.8 |

| Compound | hERG current change (%, negative = inhibition) at 10uM [%] |
| --- | --- |
| CC(=O)c1c(C)[nH]c(C(=O)COc2ccc3ccc(=O)oc3c2)c1C | -10.6 |
| C=CCn1c(/N=C/c2ccc3c(c2)OCO3)nc2ccccc21 | -7.49 |
| CCOC(=O)C1=C(CP(=O)(c2ccccc2)c2ccccc2)NC(=O)NC1c1ccc(Cl)cc1 (stereo not drawn) | 0.987 |
| Cc1noc(/C=C/N(C)C)c1S(=O)(=O)N1CCCC(C(=O)NCc2ccccc2Cl)C1 (stereo not drawn) | 5.27 |
| O=C(C1CCN(Cc2cccs2)CC1)N1CCN(Cc2ccc3c(c2)OCO3)CC1.O=C(O)C(=O)O | -14.5 |
| Cc1ccccc1NC(=O)N1CCCC(c2nc(-c3ccc(F)cc3)no2)C1 (stereo not drawn) | -26.2 |
| O=C(Cn1cnc2sc3c(c2c1=O)CCCC3)NCC(=O)Nc1ccc(F)cc1F | 5.23 |
| CCN(c1cccc(C)c1)c1ncnc2nc[nH]c12 | 9.59 |
| O=C1NC(c2ccccc2)=C(c2nc3ccccc3s2)C(c2ccc(O)cc2)N1 (stereo not drawn) | 5 |
| O=C(Nc1ccccc1F)c1ccc(CN2CCc3ccccc3C2)cc1 | 13.7 |
| COc1cccc(NC(=O)CCC2CCN(C(=O)c3sccc3C)CC2)c1 | 4.54 |
| c1ccc(Cc2nnc(-c3ccccc3)o2)cc1 | -2.33 |
| CCOC(=O)c1c[nH]c2ccc3ccccc3c2c1=O | 13 |
| CCCCOC(=O)c1ccc(NC(=O)CN2C(=O)NC3(CCCCCC3)C2=O)cc1 | -12.5 |
| COc1cc2cc(CCCOC(=O)c3cccc(Br)c3)oc(=O)c2cc1OC | -2.2 |
| CCOc1ccccc1CNC(=O)CCN1C(=O)COc2ccccc21 | -7.73 |
| COc1cccc(CC(NC(C)=O)C(=O)NC2CCN(S(=O)(=O)c3ccc(F)cc3)CC2)c1OC (stereo not drawn) | 10.5 |
| COc1cc(C)c(C(C)C)cc1S(=O)(=O)NC1CC(C)(C)NC(C)(C)C1 | 10.8 |
| CC(OC(=O)C1CC1)C(=O)Nc1ncc(Cl)cc1Cl (stereo not drawn) | 18.1 |
| CCCCCn1c(=O)[nH]c2cc(C(=O)NCCCN3CCC(C)CC3)ccc2c1=O | -44.4 |
| CN(C)c1ccc(NC(=O)Oc2ccccc2)cc1 | 2.82 |
| CCCCn1c(=O)[nH]c(=O)c2c1nc(-c1ccc([N+](=O)[O-])cc1)n2CC | -19.2 |

| Compound | hERG current change (%, negative = inhibition) at 10uM [%] |
| --- | --- |
| Cn1c(=O)n(C)c2cc(/C=N/N=C3/NC(=O)C(CC(=O)O)S3)ccc21 (stereo not drawn) | 16 |
| O=[N+]([O-])c1cnccc1Nc1ccc(Cl)cc1 | -41 |
| O=C(Oc1cc2oc(=O)c3c(c2cc1Cl)CCCC3)c1ccco1 | 7.8 |
| CCCCC1CC1C(=O)Nc1ncc2c(n1)CC(C)(C)CC2=O (stereo not drawn) | -57.5 |
| COc1cc(CNc2nc3ccccc3n2C)cc(OC)c1OC | -16.8 |
| Cl.Oc1ccc(Cl)cc1CNCc1ccc(F)c(F)c1 | 2.87 |
| O=C(CC1C(=O)NCCN1Cc1cccc(F)c1F)NC1CCCCCC1 (stereo not drawn) | -10.6 |
| CCCc1ccc(S(=O)(=O)N2CCN(C(C)C(=O)NCc3ccc(OC)cc3)CC2)cc1 (stereo not drawn) | -57.4 |
| O=C(NNC(=S)Nc1ccc(Cl)cc1Cl)c1ccncc1 | 23 |
| Cc1cccc(C)c1NC(=O)CN(C)C(=O)CC1OC(=O)c2ccccc21 (stereo not drawn) | 10.8 |
| COc1ccc(CCNC(=O)CCS(=O)(=O)c2ccc3nc(C)sc3c2)cc1OC | -13.1 |
| CCCNS(=O)(=O)c1ccc(CCC(=O)N2CCN(c3ccc(F)cc3)CC2)cc1 | -43.7 |
| O=C(Nc1cccc(NC(=O)c2cccnc2Cl)c1)c1ccco1 | 11.5 |
| COc1ccc(N2C(=O)c3ccccc3NC2c2ccccc2O)cc1 (stereo not drawn) | 15.1 |
| Cc1n[nH]c(C)c1S(=O)(=O)N(CC(=O)Nc1ccc2c(c1)OCCO2)c1ccc(C(C)C)cc1 | 6.48 |
| CC1(C)Cc2nc(N)c(C(=O)NCCO)cc2CO1 | -2.36 |
| O=C(CSC1=Nc2ccccc2C2CC=NN12)Nc1ccc(F)c(F)c1F (stereo not drawn) | -16.1 |
| O=C(Nc1ccc(NC(=O)c2ccc([N+](=O)[O-])cc2[N+](=O)[O-])cc1)c1ccco1 | 13.8 |
| COc1cccc(/C=N/NC(=O)c2ccccc2N(Cc2ccccc2)S(=O)(=O)c2ccccc2)c1OC | -6.05 |
| Nc1nnc(SCC(=O)NCCOc2ccccc2)s1 | 4.23 |
| COc1ccc(OC)c(C2=Nn3c(nnc3C3CCCCC3)SC2)c1 | -39.4 |
